First the molecules themselves.
B1: PhoQ; a variant is named by its letters at X, in order, P23837 (parent)
chain: MKKLLRLFFPLSLRVRFLLATAAVVLVLSLAYGMVALIGYSVSFDKTTFRLLRGESNLFYTLAKWENNKLHVELPENIDKQSPTMTLIYDENGQLLWAQRDVPWLMKMIQPDWLKSNGFHEIEADVNDTSLLLSGDHSIQQQLQEVREDDDDAEMTHSVAVNVYPATSRMPKLTIVVVDTIPVELKSSYMVWSWFIYVLSANLLLVIPLLWVAAWWSLRPIEALAKEVRELEEHNRELLNPATTRELTSLVRNLNRLLKSERERYDKYRTTLTDLTHSLKTPLXXLQXXLRSLRSEKMSVSDAEPVMLEQISRISQQIGYYLHRASMRGGTLLSRELHPVAPLLDNLTSALNKVYQRKGVNISLDISPEISFVGEQNDFVEVMGNVLDNACKYCLEFVEISARQTDEHLYIVVEDDGPGIPLSKREVIFDRGQRVDTLRPGQGVGLAVAREITEQYEGKIVAGESMLGGARMEVIFGRQHSAPKDE

The text below walks through data of a collection of fitness landscapes (doi:10.1126/science.1257360).

The list shows a part of the results. Bounds are passed on as bounds.

This test covers variants of B1. In words: enrichment ratio after two sorts for PhoP signalling (ratio (wild type AVST 3.29)); higher = more functional. The following applies: with PhoP (E. coli).
Regarding KDLE, the enrichment ratio was ≤ 0.25.
As for QMLH, the figure is ≤ 0.25; as for WRSK, ≤ 0.25.
For WSDP the value was ≤ 0.25; for TSYA, 7.28; for PHPP, ≤ 0.25.
On to KQQC, for which the enrichment ratio was ≤ 0.25.
For KYCA the value was ≤ 0.25; for IFHF, ≤ 0.25.
As for TVLF, the enrichment ratio is ≤ 0.25.
As to GVFR, the enrichment ratio was ≤ 0.25.
As for NPWY, the figure is ≤ 0.25.
On to ERIV, for which the enrichment ratio is ≤ 0.25.
For the variant MTQR, the enrichment ratio is ≤ 0.25.
Regarding FCII, the enrichment ratio is ≤ 0.25.
Consider VGSW, for which the enrichment ratio was ≤ 0.25.
Consider GMLY, for which the enrichment ratio was ≤ 0.25.
For INEW the value was ≤ 0.25.
For the variant FCLD, the enrichment ratio was ≤ 0.25.
For ARML, the enrichment ratio came to 7.51.
For VHYW the value was ≤ 0.25.
As for YVPQ, the figure is ≤ 0.25.
Turning to KESR, the enrichment ratio was ≤ 0.25.
For the variant ETVF, the enrichment ratio was ≤ 0.25.
As for VRTI, the figure is ≤ 0.25; as for MTGL, 7.07; as for LPAI, ≤ 0.25.
For PPVK the value was ≤ 0.25; for PMSY, ≤ 0.25.
DWPE: the enrichment ratio is ≤ 0.25.
For QLIE the value was ≤ 0.25; for HFVV, ≤ 0.25.
For DCCP the value was ≤ 0.25.
For IRVM the value was ≤ 0.25; for RMEH, ≤ 0.25; for ANNR, ≤ 0.25.
For the variant WLSP, the enrichment ratio was ≤ 0.25.
With SDRP, the enrichment ratio is ≤ 0.25.
Take LRWI: the enrichment ratio is ≤ 0.25.
As for TDWK, the figure is ≤ 0.25.
For TDYG the value was ≤ 0.25.
For LTWC the value was ≤ 0.25; for DCWP, 1.12; for SCDV, ≤ 0.25.
For NDVY, the enrichment ratio was ≤ 0.25.
As for HRAN, the figure is ≤ 0.25; as for DPKY, ≤ 0.25.
As for EGTR, the figure is ≤ 0.25; as for MRRH, ≤ 0.25.
As for QMFC, the figure is ≤ 0.25; as for FLCY, ≤ 0.25.
For the variant FTAQ, the enrichment ratio is ≤ 0.25.
For the variant LPEP, the enrichment ratio was ≤ 0.25.
As for PQME, the figure is ≤ 0.25.
For YSPT the value was ≤ 0.25; for EFKE, ≤ 0.25.
As for LGSC, the figure is ≤ 0.25; as for TLPN, ≤ 0.25.
On to SQFW, for which the enrichment ratio was ≤ 0.25.
In the case of MNMW, the enrichment ratio is ≤ 0.25.
As for WDTV, the enrichment ratio is ≤ 0.25.
On to WSSD, for which the enrichment ratio is ≤ 0.25.
With RDPN, the enrichment ratio was ≤ 0.25.
For LQKG, the enrichment ratio is ≤ 0.25.
As for RHDK, the figure is ≤ 0.25; as for RFSA, ≤ 0.25; as for AMQR, ≤ 0.25.
Regarding NYHL, the enrichment ratio was ≤ 0.25.
As for QRFS, the enrichment ratio was ≤ 0.25.
For the variant IDQN, the enrichment ratio is ≤ 0.25.
For VYYD the value was ≤ 0.25; for WIQV, ≤ 0.25.
As for QMPH, the figure is ≤ 0.25; as for NIRP, ≤ 0.25; as for EDTR, ≤ 0.25.
As to FDLL, the enrichment ratio was ≤ 0.25.
With FSQI, the enrichment ratio was ≤ 0.25.
YDRR: the enrichment ratio was ≤ 0.25.
FGEY: the enrichment ratio is ≤ 0.25.
With STFT, the enrichment ratio was ≤ 0.25.
As for IKHE, the figure is ≤ 0.25.
In the case of NFYL, the enrichment ratio is ≤ 0.25.
Regarding PMEV, the enrichment ratio is ≤ 0.25.
For NLEN the value was ≤ 0.25.
As to DRRK, the enrichment ratio was ≤ 0.25.
Turning to KETA, the enrichment ratio is ≤ 0.25.
On to EQEY, for which the enrichment ratio is ≤ 0.25.
For PACC, the enrichment ratio is ≤ 0.25.
With AIMN, the enrichment ratio was 5.77.
Take PFKM: the enrichment ratio was ≤ 0.25.
Regarding TKDV, the enrichment ratio was ≤ 0.25.
Regarding SRHD, the enrichment ratio is ≤ 0.25.
As to LWCC, the enrichment ratio was ≤ 0.25.
As for KLNM, the enrichment ratio was ≤ 0.25.
For RQLD the value was ≤ 0.25.
For GFML the value was ≤ 0.25.
For ANPH the value was ≤ 0.25; for FSMQ, 3.93; for TVGK, 2.73.
As to TPGY, the enrichment ratio was ≤ 0.25.
As for QFDR, the figure is ≤ 0.25.
With PIWI, the enrichment ratio is ≤ 0.25.
As for IGSH, the figure is ≤ 0.25; as for VKLV, ≤ 0.25; as for SLMP, ≤ 0.25.
With HPRM, the enrichment ratio was ≤ 0.25.
For KKVH the value was ≤ 0.25.
SGAW: the enrichment ratio was ≤ 0.25.
For MPQY, the enrichment ratio is ≤ 0.25.
As for YFPM, the figure is ≤ 0.25; as for WILW, ≤ 0.25; as for FCVY, ≤ 0.25.
For DHCT the value was ≤ 0.25; for AFKI, ≤ 0.25; for AYIR, ≤ 0.25.
As for ICKC, the figure is ≤ 0.25.
For the variant RETP, the enrichment ratio was ≤ 0.25.
NYCF: the enrichment ratio was ≤ 0.25.
Regarding ATIA, the enrichment ratio came to 1.45.
In the case of PTPI, the enrichment ratio is ≤ 0.25.
As for RLAN, the figure is 0.869; as for EEKK, ≤ 0.25; as for RKNL, ≤ 0.25.
For IAGC the value was ≤ 0.25; for MYHS, ≤ 0.25.
As for KSCA, the figure is ≤ 0.25.
Consider QKAG, for which the enrichment ratio was ≤ 0.25.
As for FGEN, the figure is ≤ 0.25; as for RCFE, ≤ 0.25; as for LMTH, ≤ 0.25.
For DGET, the enrichment ratio was ≤ 0.25.
In the case of GPDS, the enrichment ratio was ≤ 0.25.
Regarding DGAD, the enrichment ratio is ≤ 0.25.
For TANV the value was 17.9; for NTPP, ≤ 0.25; for RNLS, ≤ 0.25.
For QGCI the value was 19.5; for GDGG, ≤ 0.25.
Consider HHHM, for which the enrichment ratio is ≤ 0.25.
Take GIKV: the enrichment ratio is ≤ 0.25.
In the case of SMGR, the enrichment ratio was ≤ 0.25.
As for EGNF, the figure is ≤ 0.25; as for EDLL, ≤ 0.25; as for YTCV, ≤ 0.25.
As for VDNL, the figure is ≤ 0.25.
For QQGG the value was ≤ 0.25.
Consider WMAL, for which the enrichment ratio was ≤ 0.25.
For TWLP the value was ≤ 0.25; for SHIS, ≤ 0.25.
For DTGS the value was ≤ 0.25; for AFYP, ≤ 0.25.
As for RCGL, the figure is ≤ 0.25.
As to KNCS, the enrichment ratio was ≤ 0.25.
